Measured values as given in PMC3398040.
No constants are given. Whether binding was seen depends on the method and setting. Binding seen in cells or lysates may run through a third protein. Some entries that bind do so weakly or less than the wild type. Where a sequence is shown, tags or fusion partners need not be part of it.

Assays:
[1] = target: T1, myc-tagged Cdc53 (^mycCdc53) (S. cerevisiae) (UniProt Q12018); assay: co-IP; bacterial lysates with HIS-Rpn1 and GST-Ufo1 mixed with yeast extract with myc-Cdc53 and GFP-Ho; aliquots immunoprecipitated with anti-myc, anti-GFP, anti-GST or anti-HIS and Protein A beads (Figure 4, + Ho)
T1 sequence: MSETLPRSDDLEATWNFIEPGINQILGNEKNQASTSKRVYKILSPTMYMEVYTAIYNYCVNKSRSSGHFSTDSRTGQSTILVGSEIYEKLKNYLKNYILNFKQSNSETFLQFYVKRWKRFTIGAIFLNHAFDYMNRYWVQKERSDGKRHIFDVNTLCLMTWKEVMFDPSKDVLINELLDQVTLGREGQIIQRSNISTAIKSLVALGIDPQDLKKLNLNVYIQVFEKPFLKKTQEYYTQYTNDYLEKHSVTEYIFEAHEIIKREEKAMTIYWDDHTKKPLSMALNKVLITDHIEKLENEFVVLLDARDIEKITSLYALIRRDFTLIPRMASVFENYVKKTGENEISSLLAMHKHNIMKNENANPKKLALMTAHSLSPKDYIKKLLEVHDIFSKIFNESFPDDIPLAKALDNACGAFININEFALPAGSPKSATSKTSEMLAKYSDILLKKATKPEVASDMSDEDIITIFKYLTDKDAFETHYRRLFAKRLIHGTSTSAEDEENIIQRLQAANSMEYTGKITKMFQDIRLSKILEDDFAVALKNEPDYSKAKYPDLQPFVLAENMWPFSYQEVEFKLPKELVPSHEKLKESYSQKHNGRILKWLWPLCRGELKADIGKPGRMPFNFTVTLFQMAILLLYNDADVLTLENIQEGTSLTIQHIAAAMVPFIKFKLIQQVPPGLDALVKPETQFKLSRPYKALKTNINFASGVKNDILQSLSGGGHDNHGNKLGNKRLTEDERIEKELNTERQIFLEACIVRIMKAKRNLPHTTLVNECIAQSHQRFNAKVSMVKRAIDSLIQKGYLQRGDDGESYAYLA

[2] = target: T2, HIS-tagged Rpn1 (^HISRpn1) (yeast) (UniProt P38764); assay: as above
T2 sequence: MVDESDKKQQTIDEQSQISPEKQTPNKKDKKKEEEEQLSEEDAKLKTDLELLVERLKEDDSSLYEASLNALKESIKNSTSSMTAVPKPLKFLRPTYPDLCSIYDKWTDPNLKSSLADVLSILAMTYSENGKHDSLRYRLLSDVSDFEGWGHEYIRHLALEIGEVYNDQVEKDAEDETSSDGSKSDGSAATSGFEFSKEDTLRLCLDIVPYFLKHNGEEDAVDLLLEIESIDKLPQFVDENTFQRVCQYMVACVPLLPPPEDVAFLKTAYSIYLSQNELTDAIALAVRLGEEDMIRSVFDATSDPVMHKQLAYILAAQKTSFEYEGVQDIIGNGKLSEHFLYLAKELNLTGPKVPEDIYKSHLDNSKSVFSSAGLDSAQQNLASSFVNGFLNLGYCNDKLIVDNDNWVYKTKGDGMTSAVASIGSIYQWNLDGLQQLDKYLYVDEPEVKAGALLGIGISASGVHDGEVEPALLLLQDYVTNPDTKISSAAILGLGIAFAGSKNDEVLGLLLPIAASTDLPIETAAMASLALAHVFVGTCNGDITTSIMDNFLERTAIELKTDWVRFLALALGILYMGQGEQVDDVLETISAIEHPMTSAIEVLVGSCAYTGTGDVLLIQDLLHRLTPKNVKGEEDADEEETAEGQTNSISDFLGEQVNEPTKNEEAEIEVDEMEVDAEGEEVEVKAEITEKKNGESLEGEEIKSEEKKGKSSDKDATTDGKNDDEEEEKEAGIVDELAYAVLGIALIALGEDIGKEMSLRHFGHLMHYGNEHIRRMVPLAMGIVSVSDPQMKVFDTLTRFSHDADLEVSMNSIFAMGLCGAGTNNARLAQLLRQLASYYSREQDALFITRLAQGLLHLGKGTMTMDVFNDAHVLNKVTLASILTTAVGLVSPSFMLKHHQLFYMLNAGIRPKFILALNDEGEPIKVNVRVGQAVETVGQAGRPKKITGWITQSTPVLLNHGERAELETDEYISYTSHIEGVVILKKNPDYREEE

[3] = target: T3, HIS-tagged Ddi1 (^HISDdi1) (yeast) (UniProt P40087); assay: pull-down; HIS-Ddi1 on Ni beads incubated with one lysate or extract alone (GST-Rpn1 or GST-Ufo1 bacterial lysate, GFP-Ho or GFP-Ufo1 yeast extract); washed with 2.5% Triton X100 and 100 mM imidazole (Figure 5A lanes 4-6, Figure 5B lanes 3 and 4); only the target purified
T3 sequence: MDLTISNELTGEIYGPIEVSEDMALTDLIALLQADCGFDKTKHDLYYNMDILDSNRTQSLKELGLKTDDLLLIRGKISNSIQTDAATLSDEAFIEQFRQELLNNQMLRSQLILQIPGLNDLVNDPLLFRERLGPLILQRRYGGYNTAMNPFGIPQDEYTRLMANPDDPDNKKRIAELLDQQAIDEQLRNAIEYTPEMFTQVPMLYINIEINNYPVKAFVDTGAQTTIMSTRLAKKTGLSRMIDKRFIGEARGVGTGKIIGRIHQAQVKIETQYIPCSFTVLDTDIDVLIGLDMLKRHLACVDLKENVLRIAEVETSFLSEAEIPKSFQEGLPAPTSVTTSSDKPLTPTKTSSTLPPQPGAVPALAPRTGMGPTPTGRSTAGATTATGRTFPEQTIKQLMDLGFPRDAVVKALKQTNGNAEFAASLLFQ

[4] = target: T3, HIS-tagged Ddi1 (^HISDdi1) (yeast); assay: pull-down; HIS-Ddi1 on Ni beads incubated with GST-Ufo1 and/or GST-Rpn1 lysate together with yeast extract with ubiquitylated GFP-Ho (Figure 5A lanes 8-10); only the target purified

binding [1]: binds | binding [2]: binds | binding [3]: binds | binding [4]: binds
B1: GFP-tagged Ho endonuclease (^GFPHo) (enzyme, UniProt P09932 1-586)
chain: MLSENTTILMANGEIKDIANVTANSYVMCADGSAARVINVTQGYQKIYNIQQKTKHRAFEGEPGRLDPRRRTVYQRLALQCTAGHKLSVRVPTKPLLEKSGRNATKYKVRWRNLQQCQTLDGRIIIIPKNHHKTFPMTVEGEFAAKRFIEEMERSKGEYFNFDIEVRDLDYLDAQLRISSCIRFGPVLAGNGVLSKFLTGRSDLVTPAVKSMAWMLGLWLGDSTTKEPEISVDSLDPKLMESLRENAKIWGLYLTVCDDHVPLRAKHVRLHYGDGPDENRKTRNLRKNNPFWKAVTILKFKRDLDGEKQIPEFMYGEHIEVREAFLAGLIDSDGYVVKKGEGPESYKIAIQTVYSSIMDGIVHISRSLGMSATVTTRSAREEIIEGRKVQCQFTYDCNVAGGTTSQNVLSYCRSGHKTREVPPIIKREPVYFSFTDDFQGESTVYGLTIEGHKNFLLGNKIEVKSCRGCCVGEQLKISQKKNLKHCVACPRKGIKYFYKDWSGKNRVCARCYGRYKFSGHHCINCKYVPEAREVKKAKDKGEKLGITPEGLPVKGPECIKCGGILQFDAVRGPHKSCGNNAGARIC
modifications: ubiquitylated as produced in yeast (sites not given)
